Measured values published in patent US20240299393A1, “SMALL MOLECULE DISRUPTORS OF PROTEIN INTERACTIONS IN HISTONE DEACETYLASE COMPLEXES” (Dana-Farber Cancer Institute, Inc., priority 2021, published 2024).

Key:
[1] = test system: Rpd3L HDAC complex; assay: Yeast URS-URA3 reporter assay, agar diffusion format; format: cell-based, S. cerevisiae; conditions: wild-type URS-URA3 yeast, media lacking uracil / 5FOA
Experimental: To identify small molecule perturbants in an agar diffusion assay format, yeast cells were first seeded on the appropriate solid media (dried for at least three days at room temperature), at the indicated cell density per plate. After ˜30 min, compounds (dissolved in 100% DMSO) were then spotted (˜1 to 5 μL) at the indicated concentrations onto the seeded cells, to allow diffusion and formation of a circular concentration gradient around the original spot.
Using the agar diffusion assay format described above, the yeast Rpd3L HDAC complex was interrogated against 52,234 candidate small molecules (FIG. 32), tested in duplicate. JOY134 yeast cells were seeded at a density of ˜5×10^9 cells per plate on solid SC-LU medium, poured into Nunc OmniTray petri dishes. […] After five to seven days of incubation at 30° C., each duplicated plate was manually scored by comparing the rings of growth from candidate compounds to the DMSO controls. […]
The design of the assay is such that wild-type URS-URA3 yeast cells are plated onto solid medium lacking uracil. […] This primary positive selection for growth has obvious advantages over settings using negative readouts, such as reduction of reporter signal or cell viability. […]

[2] = test system: yeast S. cerevisiae MaV208 transcriptome; assay: RNA-seq in yeast MaV208; format: cell-based
Experimental: After yeast cells reached OD600 nm ˜0.5 in 0.8-1 mL of YPD, they were grown for two more hours at room temperature before being centrifuged to remove supernatant and freezing pellets on dry ice. For compound treatments, yeast cells at OD600 nm˜0.5 in YPD were incubated at room temperature for two hours with DMSO (1-1.6%) or the desired compound (from 25 mM stock in 100% DMSO) in an 2 mL-tube for a final volume of 0.8 mL in YPD, before being centrifuged, washed and frozen as described above. Yeast cells were then harvested for RNA extraction using a RiboPure RNA Purification Kit (Invitrogen, cat #AM1926), which involves mechanical cell wall disruption, phenol extraction of the lysate, and RNA purification using glass fiber, and filter-based RNA purification columns. RNA concentration was measured for individually purified RNA samples using a NanoDrop spectrophotometer. A total of 1 μg RNA from each sample was used for reverse transcription following a published procedure [Choi, S. G. et al 2012].
(§1) Following identical treatments as for RT-qPCR measurements, RNA was extracted as described above for yeast and neuroblastoma cells. Quality of the samples was checked by RT-qPCR before processing to RNA-Seq. RNA-Seq libraries for yeast (n=3 per condition) and neuroblastoma cells (n=3 per condition) were prepared according to the TruSeq stranded mRNA protocol (Illumina) and 101-bp single-end reads produced on an Illumina NovaSeq 6000 instrument. Reads were mapped to the human GRCh38 transcriptome (Ensembl cDNA release 97) or S. cerevisiae R64-1-1 (Ensembl cDNA release 97) and quantified using Salmon v0.8.2 [Patro et al 2017]. Read counts were summed to the gene level using tximport [Soneson et al 2015] and differential expression was assessed using DESeq2 [Love et al 2014]. Heatmaps were generated in R using the pheatmap package. The p-values of the overlaps were determined using two-sided Fisher's exact test and calculated using python function scipy.stats.fisher_exact.
All samples received the same amount of DMSO (0.7% of the total volume) for direct, side-by-side comparisons.

[3] = test system: transcriptome of neuroblastoma SK-N-BE(2)-C cells; assay: RNA-seq in neuroblastoma cells; format: cell-based, human; conditions: for number of genes perturbed (RNA-Seq): 1 μM TSA, 25 μM E6R, at least two fold vs DMSO
Experimental: SK-N-BE(2)-C cells were maintained in cell culture flasks supplemented with 10% Fetal bovine serum (FBS) and penicillin/streptomycin (PS) in Dulbecco's Modified Eagle's Medium (DMEM). The cells were maintained at a log phase in a humidified 5% CO2 incubator at 37° C. For testing the effect of the compounds on gene expression, approximately 0.1 million cells were seeded on each well of 24-well cell culture plates, with 1 mL 10% FBS+PS+DMEM. 24 h after seeding the cells, they were exposed to the compounds or DMSO control for 16 h in a humidified 5% CO2 incubator at 37° C., before harvesting them.
as §1

SMILES	phenotype in URS-URA3 reporter assay [1]	share of differentially regulated genes in sin3Δ similarly affected ([2]; 69/592) [%]	share of differentially regulated genes due to decreased Sin3 occupancy in promoter ([2]; RNA-Seq versus ChIP-Seq, 47/351) [%]	genes also affected, out of 179 changed by rpd3Δ, sin3Δ and TSA ([2]; 50 μM) [genes]	share of the 179 genes changed by rpd3Δ, sin3Δ and TSA also affected ([2]; 50 μM) [%]	differentially expressed genes, down ([2]; WT+20 μM TSA or WT+50 μM E6R) [genes]	number of genes perturbed (RNA-Seq) [3]	fewer human genes perturbed compared to TSA ([3]; 25 μM E6R vs 1 μM TSA)
CC(NC(=O)c1c(O)n2ccccc2nc1=O)c1ccccc1 (racemic) [E6]	single Ura^+/Foa^− phenotype	~12	~13					
C[C@@H](NC(=O)c1c(O)n2ccccc2nc1=O)c1ccccc1 [E6R, 4-hydroxy-2-oxo-N—((R)-1-phenylethyl)-3,4-dihydro-2H-pyrido[, 2-a]pyrimidine-3-carboxamide]				43	~25	114	289 genes	approximately 20 fold
CC(/C=C/C(=O)NO)=C\[C@@H](C)C(=O)c1ccc(N(C)C)cc1 [TSA, trichostatin A]							6,103 genes	
